In PubChem BioAssay AID889 (National Center for Advancing Translational Sciences (NCATS), 2007):
Several values for one entry are separate records, joined by “and”; a condition that tells them apart may be missing. Equal values may be shown once. In all, about 75,000 compounds went through this assay and about 15 (0.02%) were called active. This list was built around the results that the source calls inconclusive (neither active nor inactive); the mix of calls is not that of the screen. Calls follow the shape of the dose curve; as a rule, active = well fitted inhibition curve with a large enough effect in the main read-out, with a control signal flat (not every such curve was filed as active); inconclusive = small, poorly fitted or top-dose-only effect, or a change in a side signal; inactive = flat fitted curve, though single readings scatter. Potencies beside an inconclusive call are fits to weak or partial responses and may not hold up. “Side channel” marks fits to a control or component signal instead of the main read-out.

Each compound was assayed against Caspase-7 (Homo sapiens) (UniProt P55210) (assay: qHTS Assay for Allosteric/Competitive Inhibitors of Caspase-7). Conditions: recombinant caspase-7, Ac-DEVD-AFC fluorescence rate; activity change, negative = inhibition: at 57.5 µM (top of the series) unless noted.
UniProt P55210, sequence (P55210 whole entry, looked up): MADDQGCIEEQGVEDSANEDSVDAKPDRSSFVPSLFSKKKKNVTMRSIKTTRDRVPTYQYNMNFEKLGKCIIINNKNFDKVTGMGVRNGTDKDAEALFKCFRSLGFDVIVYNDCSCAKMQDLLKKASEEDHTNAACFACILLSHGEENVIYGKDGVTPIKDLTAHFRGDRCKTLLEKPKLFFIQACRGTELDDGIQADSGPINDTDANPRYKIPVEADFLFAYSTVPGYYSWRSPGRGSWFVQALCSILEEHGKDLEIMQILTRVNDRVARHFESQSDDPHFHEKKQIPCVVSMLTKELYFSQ

For activity change, negative = inhibition in this document: % of control where 0% means no effect.
Potency is read from the fitted curve at half-maximal effect; tags tell the direction and shape of the fitted curve or compound fluorescence and quenching.

SMILES | Potency | activity change, negative = inhibition
Oc1ccc(Cc2nccc3cc(O)c(O)cc23)cc1O | inconclusive: 3.16 µM [fluorescent, side channel, single point] | –
CO[C@H]1COC(=O)C/C=C\[C@H](C)[C@@H](NS(=O)(=O)c2ccc(C)cc2)COC(=O)C/C=C\[C@@H]1C | – | inactive: 5.89% [at 11.5 µM] and inactive: -0.647% [at 11.5 µM]
N#CC1=C(N)C(C#N)(C#N)C(c2cccnc2)C2CCCC=C12 (stereo not given) | inconclusive: 25.1 µM [fluorescent, partial curve] | –
COc1ccc(-n2c(N)c(C(=O)NCc3ccco3)c3nc4ccccc4nc32)c(OC)c1 | inconclusive: 25.1 µM [fluorescent, partial curve] | –
Cc1noc(C)c1COC(=O)c1ccccc1Oc1ccccc1 | – | inactive: -0.874%
O=C1CCCC2=C1C(c1ccco1)Nc1ccc3ccccc3c12 (stereo not given) | inconclusive: 25.1 µM [inhibitor, single point] | –
CCn1c(C)cc2c(c1=O)C(c1ccccc1Br)C(C#N)=C(N)O2 (stereo not given) | inconclusive: 39.8 µM [fluorescent, single point] | –
O=C(CSc1nnc(CNC(=O)c2cccs2)o1)NCc1ccc(F)cc1 | – | inactive: 0.985%
COc1ccccc1C1C=C(c2ccc(Cl)cc2)Nc2nc(N3C(=O)CCC3=O)nn21 (stereo not given) | inconclusive: 15.8 µM [fluorescent, side channel, partial curve] | –
CSc1ccccc1N=Cc1nc(-c2ccccc2)oc1O | inconclusive: 31.6 µM [fluorescent, side channel, single point] | –
COC(=O)C1=CNC=C(C(=O)OC)C1c1ccc(Cl)cc1 | inconclusive: 15.8 µM [fluorescent, partial curve] | –
N#Cc1c(N2CCCC2)nc(N)c2c(N)nc(N3CCCC3)cc12 | inconclusive: 31.6 µM [inhibitor, single point] | –
COCCN(CCOC)c1cc(C)c(C#N)c2nc3ccccc3n12 | inconclusive: 12.6 µM [fluorescent, side channel, partial curve] | –
CCN(CC)c1nc2cc(OC)ccc2cc1C#N | inconclusive: 25.1 µM [fluorescent, partial curve] | –
COc1cccc(Oc2coc3c(CN4CCOCC4)c(O)ccc3c2=O)c1 | inconclusive: 31.6 µM [inhibitor, single point] | –
CCOC(=O)c1cc2c(=O)n3cccc(C)c3nc2n(CCOC)c1=NC(=O)c1ccncc1 | inconclusive: 7.94 µM [inhibitor, partial curve] | –
CC[C@H](C)[C@@H]1O[C@]2(CC[C@@H]1C)C[C@H]1C[C@H](CC=C(C)[C@@H](O[C@H]3C[C@H](OC)[C@H](O[C@H]4C[C@H](OC)[C@H](O)[C@H](C)O4)[C@H](C)O3)[C@@H](C)C=CC=C3CO[C@@H]4[C@@H](O)C(C)=C[C@H](C(=O)O1)[C@@]34O)O2 | – | inactive: -5.53%
COc1ccc2nc3c(cc2c1)c(NC(=O)C1CCCO1)nn3CC(C)C (stereo not given) | inconclusive: 12.6 µM [fluorescent, side channel, partial curve] | –
CN(C)c1ncc2nc(-c3ccc(Cl)cc3)c(=O)n(C[C@H]3CCCO3)c2n1 | inconclusive: 3.16 µM [fluorescent, full curve] | –
COc1ccc(Oc2ncc3nc(-c4cn(C)c5ccccc45)c(=O)n(CCC#N)c3n2)cc1 | inconclusive: 6.31 µM [fluorescent, side channel, partial curve] | –
O=C(NCc1ccc2[nH]c3c(c2c1)CCCC3)N1CCOCC1 | inconclusive: 25.1 µM [fluorescent, partial curve] | –
CCN1C(=O)c2cccc3c(S(=O)(=O)Nc4ncccc4C)ccc1c23 | inconclusive: 31.6 µM [fluorescent, single point] | –

SMILES | Potency | activity change, negative = inhibition
CCNc1ncc2nc(CCc3ccccc3)c(=O)n(Cc3ccc(F)cc3)c2n1 | inconclusive: 15.8 µM [fluorescent, partial curve] | –
COc1ccc(NC(=O)N2CCn3c2nc2ccccc23)cc1 | – | inactive: -3.78%
O=C(Nc1sc2c(c1C(=O)NCC1CCCO1)CCCC2)c1cccs1 (stereo not given) | inconclusive: 31.6 µM [inhibitor, single point] | –
Cc1cc(NCCCn2ccnc2)n2ncc(-c3ccccc3)c2n1 | – | inactive: -0.16%
Cc1cnc(CNc2nc(-c3ccc(N(C)C)cc3)nc3ccccc23)cn1 | – | inactive: -12.5%
COc1cccc(Nc2ncc3nc(-c4cccs4)c(=O)n(-c4ccccc4)c3n2)c1 | inconclusive: 15.8 µM [fluorescent, partial curve] | –
Cn1c(=O)c(-c2cccs2)nc2cnc(N3CCOCC3)nc21 | inconclusive: 0.398 µM [fluorescent, full curve] | –
N[C@@H](Cn1ccc(=O)n(Cc2ccccc2C(=O)O)c1=O)C(=O)O | – | inactive: 0.278%
CCOC(=O)C1=C(C)NC2=C(C(=O)C(C(=O)OCC)C(c3ccco3)C2)C1c1ccccn1 (stereo not given) | inconclusive: 15.8 µM [fluorescent, partial curve] | –
CCNc1ncc2nc(-c3ccc(OC)cc3)c(=O)n(Cc3ccc(F)cc3)c2n1 | inconclusive: 2.51 µM [fluorescent, side channel, full curve] | –
CC1(C)Cc2ccccc2-c2nnc(SCc3ccc(C#N)cc3)n21 | – | inactive: -1.24%
Cc1ccc(C)c(S(=O)(=O)C(C#N)c2nc3ccccc3nc2N2CCOCC2)c1 (stereo not given) | inconclusive: 12.6 µM [inhibitor, partial curve] | –
Cc1nc(SCC(=O)N(C)Cc2ccco2)c2c(C)c(C)sc2n1 | – | inactive: -1.55%
O=c1c(-c2ccccc2)coc2cc(O)cc(O)c12 | – | inactive: 1.73%
O=[n+]1c2c(n([O-])c3cc(Br)ccc31)CCC2 | inconclusive: 31.6 µM [inhibitor, single point] | –
O=c1c(-c2ccc(F)cc2)nc2cnc(Nc3ccccc3)nc2n1C[C@H]1CCCO1 | inconclusive: 3.98 µM [fluorescent, partial curve] | –
Cc1nn(C)c(C)c1N=Cc1c(O)ccc2ccccc12 | inconclusive: 25.1 µM [fluorescent, side channel, single point] | –
COc1ccc(-c2nc3cnc(N4CCOCC4)nc3n(CCc3ccccc3)c2=O)cc1 | inconclusive: 1 µM [fluorescent, side channel, full curve] | –
O=C(Nc1cccc(-c2nc3cc(Cl)ccc3o2)c1)C1CCCO1 (stereo not given) | – | inactive: -2.91%
CCNc1ncc2nc(-c3ccc(Cl)cc3)c(=O)n(C3CC3)c2n1 | inconclusive: 1.26 µM [fluorescent, side channel, full curve] | –
Cc1cc(C(=O)Nc2sc3c(c2C#N)CCC(C)C3)cs1 (stereo not given) | – | inactive: -1.45%
N#Cc1cccc(-c2nc3cnc(N4CCOCC4)nc3n(C[C@H]3CCCO3)c2=O)c1 | inconclusive: 2.51 µM [fluorescent, full curve] | –

SMILES | Potency | activity change, negative = inhibition
COCc1cc(=O)n2c([nH]c3ccccc32)c1C#N | inconclusive: 12.6 µM [fluorescent, partial curve] | –
CN(C)c1ncc2nc(-c3cccs3)c(=O)n(CCC#N)c2n1 | inconclusive: 1.58 µM [fluorescent, side channel, full curve] | –
O=C1[C@@H]2[C@H]3[C@H](O)[C@H](O)C/C(=N/OC[C@@H](O)COCc4ccco4)[C@@H]3CC[C@H]2C(=O)N1c1ccc(F)cc1F | – | inactive: 2.24% [at 11.5 µM]
Cc1nc2cnc(N3CCNCC3)nc2n(CCC#N)c1=O | inconclusive: 25.1 µM [fluorescent, partial curve] | –
COc1ccccc1Nc1nc(N)nc(CN2CCCCCC2)n1 | – | inactive: -2.84%
COc1ccc(N2C(=O)C3CCCN3C2c2ccc(Cl)cc2)cc1 (stereo not given) | – | inactive: 0.0122%
Cc1cccc(N2CSC3=C(C#N)C(c4ccc(C)o4)CC(=O)N3C2)c1 (stereo not given) | inconclusive: 12.6 µM [inhibitor, partial curve] | –
O=C(c1ccncc1)N1CCC2(CCN(Cc3ccncc3)CC2)CC1 | – | inactive: -0.593%
CC(=O)c1cc(-c2nc3ccccc3n2C)n(C)c1 | – | inactive: 0.724%
Cc1ccc2nc3c(cc2c1)c(NC(=O)c1cccnc1)nn3C | – | inactive: 0.276%
O=[N+]([O-])c1ccccc1Nc1ccccc1 | inconclusive: 31.6 µM [inhibitor, partial curve] | –
CCNc1ncc2nc(-c3ccccc3)c(=O)n(CCC#N)c2n1 | inconclusive: 3.98 µM [fluorescent, side channel, partial curve] | –
O=C1CN(C(=O)c2ccco2)C(c2ccc(F)cc2)c2cc(Cl)ccc2N1 (stereo not given) | – | inactive: 1.18%
CCN1CCN(C(=O)c2cnn3c(C(F)F)cc(-c4ccc(C)cc4)nc23)CC1 | – | inactive: -7.34%
Cc1cc(-n2c(C)cc(C(=O)CSc3ncnc4ccccc34)c2C)no1 | – | inactive: -20.2%
COCCOC(=O)C1=C(C)NC2=C(C(=O)CC(C)(C)C2)C1c1cccnc1 (stereo not given) | inconclusive: 12.6 µM [fluorescent, partial curve] | –
CN(C)CCCn1c(N)c(C#N)c2nc(C#N)c(C#N)nc21 | inconclusive: 12.6 µM [fluorescent, side channel, partial curve] | –
CCC(O)c1cc2c(cc1NC(=O)c1cccs1)OCCO2 (stereo not given) | inconclusive: 10 µM [fluorescent, partial curve] | –
COc1cccc(Cn2c(=O)c(-c3cn(C)c4ccccc34)nc3cnc(OC)nc32)c1 | inconclusive: 3.16 µM [inhibitor, full curve] | –
COc1ncc2nc(-c3cccs3)c(=O)n(Cc3ccc(F)cc3)c2n1 | inconclusive: 2.51 µM [fluorescent, full curve] | –
CC1=C(C(=O)Nc2cc(-c3cccc(F)c3)[nH]n2)C2(CCCCC2)OC1=O | inconclusive: 25.1 µM [inhibitor, single point] | –
